Reference: publication PMC12167477, “Setdb1 and Atf7IP form a hetero-trimeric complex that blocks Setdb1 nuclear export” (The Journal of Biological Chemistry, 2025)
Results are given in words; binding and its absence hold for the method and conditions named. In cells and extracts the contact can be indirect. Some entries that bind do so weakly or less than the wild type. Tags and fused reporters may be left off the sequences shown. One block for each binder: values may come before it.

Columns and labels:
[1] = target: T1, full-length Atf7IP2, Flag- or Myc-tagged (UniProt Q5U623); assay: co-IP; HEK293 cells transiently co-transfected; lysis in 30 mM HEPES pH 7.9, 400 mM NaCl, 10% glycerol, 0.05% Tween-20, 2 mM BME, Benzonase; anti-DYKDDDDK magnetic beads, FLAG peptide elution, blots with anti-FLAG, anti-HA, anti-Myc
T1 sequence: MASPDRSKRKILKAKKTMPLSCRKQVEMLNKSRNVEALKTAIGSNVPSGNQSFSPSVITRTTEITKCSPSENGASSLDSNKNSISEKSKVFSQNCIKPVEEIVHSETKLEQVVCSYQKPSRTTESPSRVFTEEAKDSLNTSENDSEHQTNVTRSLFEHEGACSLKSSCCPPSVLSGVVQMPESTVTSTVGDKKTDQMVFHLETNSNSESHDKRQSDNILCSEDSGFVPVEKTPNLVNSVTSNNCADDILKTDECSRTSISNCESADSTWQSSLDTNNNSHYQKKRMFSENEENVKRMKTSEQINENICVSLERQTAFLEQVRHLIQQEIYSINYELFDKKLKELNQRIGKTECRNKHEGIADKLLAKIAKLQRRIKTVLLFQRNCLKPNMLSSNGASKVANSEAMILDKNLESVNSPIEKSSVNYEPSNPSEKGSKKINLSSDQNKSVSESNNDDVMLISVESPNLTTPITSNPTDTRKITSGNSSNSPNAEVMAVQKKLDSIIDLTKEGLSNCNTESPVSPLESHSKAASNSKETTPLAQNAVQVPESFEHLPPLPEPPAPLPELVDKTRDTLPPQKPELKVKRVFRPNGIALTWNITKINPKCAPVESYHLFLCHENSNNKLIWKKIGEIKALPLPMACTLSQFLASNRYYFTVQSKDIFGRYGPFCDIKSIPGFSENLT

[2] = target: T2, Atf7IP2(297-388), his-sumo- or Strep-tagged (UniProt Q5U623); assay: pull-down; three tagged proteins co-expressed in E. coli, complex purified sequentially by the his tag and then the strep tag; SDS-PAGE
T2 sequence: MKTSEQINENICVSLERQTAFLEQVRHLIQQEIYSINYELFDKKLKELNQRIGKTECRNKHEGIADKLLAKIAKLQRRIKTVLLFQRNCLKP

- binding [1]: binds
B1: full-length Atf7IP2, Flag- or Myc-tagged (protein, UniProt Q5U623 1-682)
chain: T1 sequence

- binding [2]: binds
B2: his-sumo-Atf7IP(574-666) (domain or fragment, human, UniProt Q6VMQ6 574-666, looked up)
chain: EEEYEAEFQVKITAKGDINQKLQKVIQWLLEEKLCALQCAVFDKTLAELKTRVEKIECNKRHKTVLTELQAKIARLTKRFEAAKEDLKKRHEH
notes: not shown: His6, N-terminal, kept; SUMO, N-terminal, kept

- binding [2]: binds
B3: Atf7IP2(297-388), his-sumo- or Strep-tagged (domain or fragment, UniProt Q5U623 297-388, looked up)
chain: T2 sequence
notes: Atf7IP2, coiled coil region, residues 297-388; Two differently tagged copies of one fragment, written as one molecule; in the mixed trimer with Atf7IP only the Strep-tagged copy was there; also called his-sumo-Atf7IP2(297-388); Strep-Atf7IP2(297-388); not shown: His6-SUMO (one copy) or Strep (the other copy), N-terminal, kept
